{"source": "PubChem BioAssay AID686978", "about": "(National Center for Advancing Translational Sciences (NCATS), 2013)", "note": "Values joined by “and” are separate entries in the source; they are usually repeats but may differ in a detail not shown here. Equal entries are not always repeated. The whole screen tested about 420,000 compounds, of which about 64,000 (15%) were called active. The shares of active, inactive and inconclusive entries below differ from those in the screen. Calls follow the shape of the dose curve; as a rule, active = well fitted inhibition curve with a large enough effect; inconclusive = small, poorly fitted or top-dose-only effect; inactive = flat fitted curve, though single readings scatter. Potencies of inconclusive entries are left out as doubtful fits. % is scaled to controls: 0 for no effect and ±100 for the full control effect; potency is read from the fitted curve at half-maximal effect; tags tell the direction and shape of the fitted curve."}
{"experiment": "qHTS for Inhibitors of human tyrosyl-DNA phosphodiesterase 1 (TDP1): qHTS in cells in absence of CPT; also: nearly all actives have a fitted effect of over 55% in size", "settings": "DT40 Tdp1-/- hTDP1 cells, no CPT, ATP luminescence, 48 h; activity change, negative = growth inhibition: at 46.2 µM (top of the series) unless noted", "method_in_brief": "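Growth kinetics read by CellTiter-Glo luminescence after ≥48 hr at 37 °C. Cells: DT40 Tdp1-/- stably carrying human TDP1, 400 per well, compound exposure in the absence of CPT (DMSO vehicle).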"}
{"smiles": "COc1cc(Cl)ccc1OCc1cc(C(=O)N2CCCCCCC2)no1", "Potency": "inconclusive [inhibitor, full curve, poor fit]"}
{"smiles": "CSc1oc(-c2ccco2)nc1S(=O)(=O)c1ccc(F)cc1", "Potency": "inconclusive [inhibitor, single point]"}
{"smiles": "CCN(CC)S(=O)(=O)c1cccc(C(=O)NC(C(=O)Nc2nnc(C)s2)C(C)C)c1", "note": "(stereo unspecified)", "Potency": "inconclusive [inhibitor, partial curve]"}
{"smiles": "COc1cccc(-n2c(Cn3nc(C(F)(F)F)cc3C)n[nH]c2=S)c1", "activity change, negative = growth inhibition": "inactive: -16.6%"}
{"smiles": "C=CCn1c(Cc2cccc3ccccc23)n[nH]c1=S", "Potency": "inconclusive [inhibitor, single point]"}
{"smiles": "COc1cccc(CNC(=O)c2ccc(-c3nc(CS(=O)c4ccccc4)c(C)o3)cc2)c1", "note": "(stereo unspecified)", "Potency": "active: 16.4 µM"}
{"smiles": "CCn1nc(C)c(CNC(=O)c2cc(COc3ccccc3SC)on2)c1C", "Potency": "inconclusive [inhibitor, partial curve]"}
{"smiles": "COc1cccc(NC(=O)NCc2ccccn2)c1", "activity change, negative = growth inhibition": "inactive: 12.9%"}
{"smiles": "COc1ccccc1C(=O)Nc1ccnn1C1CCN(CCCC2CCCC2)CC1", "Potency": "inconclusive [inhibitor, single point]"}
{"smiles": "CCCCn1c(N)c(N(CCOC)C(=O)c2cc(-c3ccc(C)cc3)nc3ccccc23)c(=O)[nH]c1=O", "Potency": "inconclusive [inhibitor, single point]"}
{"smiles": "Cn1c2ccc(F)cc2c2nc3ccccc3nc21", "Potency": "inconclusive [inhibitor, single point]"}
{"smiles": "O=c1[nH]c2c(=O)[nH]cnc2nc1-c1ccccc1", "activity change, negative = growth inhibition": "inactive: -22.8%"}
{"smiles": "C[C@@H]1CN([C@H](C)CO)C(=O)c2cc(Br)cnc2O[C@@H]1CN(C)C(=O)c1cccc(F)c1", "activity change, negative = growth inhibition": "inactive: -1.1%"}
{"smiles": "O=C(CN1CCOCC1)Nc1ccc(OC(F)(F)F)cc1", "activity change, negative = growth inhibition": "inactive: -11.3%"}
{"smiles": "CCN(CC)c1ccc(NC(=O)Cn2ncc3c(C)n(Cc4ccccc4F)c(C)c3c2=O)c(C)c1", "Potency": "active: 23.1 µM and active: 20.6 µM"}
{"smiles": "Cc1noc(C)c1COc1ccccc1C(=O)NNC(=O)C(C)Oc1ccccc1F", "note": "(stereo unspecified)", "activity change, negative = growth inhibition": "inactive: -4.23%"}
{"smiles": "N#Cc1c(NC(=S)NC(=O)c2ccccc2)sc2c1CCC2", "Potency": "inconclusive [inhibitor, single point]"}
{"smiles": "CC(C)c1csc(CN2CCC(C(=O)Nc3cccc(-c4ccco4)c3)CC2)n1", "Potency": "active: 18.4 µM"}
{"smiles": "Cc1cccc(NS(=O)(=O)c2ccc(C(=O)N3CCC3)cc2)c1C", "Potency": "inconclusive [inhibitor, partial curve]"}
{"smiles": "O=C(Cc1cn(-c2ccccc2)nc1-c1ccccc1)N1CCCCC1", "Potency": "inconclusive [inhibitor, single point]"}
{"smiles": "CC(=O)c1ccc(NC(=O)Nc2ccc3snnc3c2)cc1", "Potency": "active: 20.6 µM"}
{"smiles": "CCCn1c(SCc2nc(N)nc(N3CCCCC3)n2)nc2c1c(=O)n(C)c(=O)n2C", "Potency": "inconclusive [inhibitor, single point]"}
{"smiles": "Cc1cc(C)c(NC(=O)/C(=C/c2ccccc2)c2ccccc2)c(C)c1", "Potency": "active: 20.6 µM"}
{"smiles": "O=C(NC1CCCCC1)C(c1ccncc1)n1c(=O)c(-c2cc3ccccc3[nH]2)nc2ccccc21", "note": "(stereo unspecified)", "Potency": "inconclusive [inhibitor, single point]"}
{"smiles": "O=C(O)c1cccc2c1C(=O)c1cc([N+](=O)[O-])ccc1-2", "Potency": "inconclusive [inhibitor, single point]"}
{"smiles": "C/C(=N\\NC(=O)c1ccc2c(c1)OCO2)c1ccc(C(=O)O)s1", "activity change, negative = growth inhibition": "inactive: -16.4%"}
{"smiles": "O=C1OCCN1C(=O)[C@H]1[C@H](c2ccc(F)cc2)C(c2cccc(Cl)c2)=NN1c1ccccc1", "Potency": "inconclusive [inhibitor, single point]"}
{"smiles": "COc1ccc2c(CC(=O)Nc3ccc(OC)c(S(=O)(=O)N4CCOCC4)c3)coc2c1", "Potency": "inconclusive [inhibitor, single point]"}
{"smiles": "O=C1c2ccccc2C(=O)c2c1cccc2N1CCN(Cc2ccccc2)CC1", "Potency": "active: 18.4 µM"}
{"smiles": "COc1ccccc1-c1cncnc1NCCc1cnc[nH]1", "Potency": "inconclusive [inhibitor, partial curve]"}
{"smiles": "COc1cccc(-c2nc(CS(=O)(=O)CC(=O)NCc3ccc4c(c3)OCO4)c(C)o2)c1", "activity change, negative = growth inhibition": "inactive: -13.2%"}
{"smiles": "CN(C)C1(CNC(=O)C2CCN(S(=O)(=O)c3ccccc3C(F)(F)F)CC2)CCCCC1", "Potency": "inconclusive [inhibitor, single point]"}
{"smiles": "O=C(CN1CCN(c2ccccc2Cl)CC1)NC1CCCc2ccccc21", "note": "(stereo unspecified)", "Potency": "inconclusive [inhibitor, single point]"}
{"smiles": "N#Cc1ccc(/C=C/C(=O)c2ccc3c(c2)OCO3)cc1", "Potency": "active: 23.1 µM"}
{"smiles": "CC(C)N(C(=O)[C@H]1C[C@H](CC(=O)NCCN2CCOCC2)C(=O)N2CCc3c([nH]c4cc(CCC(=O)N(C)C)ccc34)[C@]12C)C(C)C", "activity change, negative = growth inhibition": "inactive: -8.07%"}
{"smiles": "CCN(CC)CCCN(C(=O)c1ccc(Br)cc1)c1nc(-c2ccc(OC)cc2)cs1", "Potency": "inconclusive [inhibitor, single point]"}
{"smiles": "Cc1cccc(C)c1-n1ncc(C(=O)NCCCN2CCCCC2)c1C1CCN(C(=O)OC(C)(C)C)CC1", "Potency": "inconclusive [inhibitor, single point]"}
{"smiles": "Cc1c(=O)n(OCc2ccccc2)c2ccccc2[n+]1[O-]", "Potency": "inconclusive [inhibitor, single point]"}
{"smiles": "O=C(O)c1ccc([N+](=O)[O-])cc1Sc1ccsc1", "activity change, negative = growth inhibition": "inactive: -9.07%"}
{"smiles": "O=C(Cn1cnc2ccccc21)Nc1ccc(F)c(F)c1", "Potency": "inconclusive [inhibitor, single point]"}
{"smiles": "Cc1nc(C(=O)N2CCc3c([nH]c4ccccc34)C2c2cc(F)ccc2F)cs1", "note": "(stereo unspecified)", "activity change, negative = growth inhibition": "inactive: -9.23%"}
{"smiles": "COc1ccccc1NC(=O)CCc1nc2sc3c(c2c(=O)[nH]1)CCCC3", "Potency": "active: 2.91 µM"}
{"smiles": "C[C@@H]1CN([C@H](C)CO)C(=O)Cc2cc(NS(=O)(=O)c3cn(C)cn3)ccc2O[C@H]1CN(C)S(=O)(=O)c1ccc(Cl)cc1", "activity change, negative = growth inhibition": "inactive: -1.42%"}
{"smiles": "Cc1c(OC(C)C(=O)N2C[C@H]3C[C@@H](C2)c2cccc(=O)n2C3)ccc2c3c(c(=O)oc12)CCCC3", "note": "(stereo partly specified)", "Potency": "inconclusive [inhibitor, partial curve, poor fit]"}
{"smiles": "O=[N+]([O-])c1ccc(/C=C/C2=NN(c3ccccc3)C(c3ccco3)C2)cc1", "note": "(stereo unspecified)", "Potency": "inconclusive [inhibitor, single point]"}
{"smiles": "Cn1c(=O)c2ccccc2n(CC(=O)N2CCCc3ccccc32)c1=O", "Potency": "inconclusive [inhibitor, partial curve, poor fit]"}
{"smiles": "CCCCOc1ccc(C(=O)NCC(c2ccc(Cl)cc2)N2CCOCC2)cc1", "note": "(stereo unspecified)", "Potency": "active: 20.6 µM"}
{"smiles": "O=C(COC(=O)c1ccc(N2CCOCC2)c([N+](=O)[O-])c1)Nc1ccc2c(c1)OCO2", "Potency": "inconclusive [inhibitor, partial curve, poor fit]"}
{"smiles": "COc1ccc(/C=C2/C(=O)ON=C2C)cc1Cl", "Potency": "inconclusive [inhibitor, single point]"}
{"smiles": "C=CCc1cc(Cl)ccc1OCCOCCNC(C)(C)C", "Potency": "inconclusive [inhibitor, single point]"}
{"smiles": "CN(Cc1ccccc1)C(=O)c1ccc(Nc2nc(C(N)Cc3ccc(C(F)(F)F)cc3)cs2)nc1", "note": "(stereo unspecified)", "Potency": "active: 11.6 µM"}
{"smiles": "C[C@H](NC(=O)c1nc[nH]c1C(=O)NC1CCN(C(=O)OC(C)(C)C)CC1)C(=O)OC(C)(C)C", "Potency": "inconclusive [inhibitor, single point]"}
{"smiles": "COc1ccc(NC(=O)c2nc(C)c(C3(C)CC(c4ccccc4)=NO3)s2)cc1", "note": "(stereo unspecified)", "Potency": "active: 5.8 µM"}
{"smiles": "Cc1cc(C(=O)CCC(=O)N(C)CC2COc3ccccc3O2)c(C)s1", "note": "(stereo unspecified)", "Potency": "inconclusive [inhibitor, partial curve, poor fit]"}
{"smiles": "CCCCOc1ccc(-c2nnc(-c3ccco3)o2)cc1", "Potency": "inconclusive [inhibitor, single point]"}
{"smiles": "CC(=O)c1cccc(-c2cnc3c(NC=O)cc(-c4ccc(F)cc4)cn23)c1", "Potency": "inconclusive [inhibitor, partial curve, poor fit]"}
{"smiles": "O=C(NCc1ccco1)C1CC(c2cccc([N+](=O)[O-])c2)=NO1", "note": "(stereo unspecified)", "Potency": "inconclusive [inhibitor, single point]"}
{"smiles": "COc1ccc2cc3c(N)nn(C(=O)Cc4ccccc4OC)c3nc2c1", "Potency": "active: 9.2 µM"}
{"smiles": "COc1cc(NC(=O)N[C@H](C(=O)O)C(C)C)cc(OC)c1", "activity change, negative = growth inhibition": "inactive: -0.21%"}
{"smiles": "O=C(NC(=S)Nc1ccc2oc(=O)ccc2c1)c1cccc(Cl)c1", "Potency": "inconclusive [inhibitor, single point]"}
{"smiles": "O=C(CN(Cc1ccccc1Cl)C(=O)CCC(=O)Nc1nccs1)NCC1CCCO1", "note": "(stereo unspecified)", "activity change, negative = growth inhibition": "inactive: -14.8%"}
{"smiles": "O=C(COc1cccc(Br)c1)Nc1ccc(N2CCOCC2)cc1N1CCOCC1", "Potency": "inconclusive [inhibitor, single point]"}
{"smiles": "CCCCNC(=O)C1(C)CCN1Cc1cc(C)ccc1C", "note": "(stereo unspecified)", "Potency": "inconclusive [inhibitor, single point]"}
{"smiles": "COc1cc(C(=O)Nc2cccc(S(=O)(=O)NCc3ccco3)c2)cc(OC)c1OC", "Potency": "inconclusive [inhibitor, single point]"}
{"smiles": "CC(C)=CCC/C(C)=C/CNC(=O)C[C@H]1C[C@H](C(=O)N2CCOCC2)[C@@]2(CCC3CCCC3)c3[nH]c4cc(-c5ccco5)ccc4c3CCN2C1=O", "Potency": "inconclusive [inhibitor, single point]"}
{"smiles": "COCCN(C(=O)COC(=O)CSc1ccc(Cl)cc1)c1c(N)n(Cc2ccccc2)c(=O)[nH]c1=O", "activity change, negative = growth inhibition": "inactive: -4.36%"}
